Values marked as one replicate rest on one cluster of the flow cell; about a third of the high ones do not repeat.

This data set has as its system ATP. The experiment in a line: switch fluorescence ratio, 500 uM ATP over buffer (Cy3 cluster intensity, sum of 5 cycles each) (fold (ratio)); higher = stronger signal-on switching upon ATP binding; sequences stand for … in TCGTCGGCAGCGTCAGATGTGTATAAGAGACAGTTTTTTTTTTTTTTTTTTTTTTTTT…TC. As to conditions: aptamer strand: ATP DNA aptamer (quencher-CACCTGGGGGAGTATTGCGGAGGAAGG + anchor), 100 nM annealed; ATP concentration: 500 uM; one replicate. An outline of the steps: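 Clusters with intensities outside 100-1000 RFU were excluded. The remaining Cy3-labelled switching-strand clusters on a modified Illumina MiSeq flow-cell had been annealed to 100 nM quencher-labelled ATP aptamer and imaged in selection buffer, then after 15 min with 500 uM ATP at 22 °C, for five cycles separated by NaOH stripping and re-annealing. The fluorescence ratio, averaged per switch-domain sequence, is each cluster's summed target-cycle Cy3 intensity over its summed buffer-cycle Cy3 intensity.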
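Also: ATP exposure 15 min at 22 °C before imaging.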

Regarding AAAATAGTGC, the switch fluorescence ratio came out at 1.06.

As for AACGGCGGCT, the switch fluorescence ratio was 1.06.

As for AAGTATGGGC, the switch fluorescence ratio was 0.987.

Consider AATATTTCAC, for which the switch fluorescence ratio came to 1.45.

AATGTAGTGG: the switch fluorescence ratio is 0.994.

Turning to TCGTTAATT, the switch fluorescence ratio was 0.952.

For TGTCTTCCTT, the switch fluorescence ratio came to 1.05.

For the sequence CACTGATCAC, the switch fluorescence ratio stood at 1.07.

As for AAGGACACTA, the switch fluorescence ratio came out at 1.05.

For GCTATGCCTG, the switch fluorescence ratio worked out at 0.997.

For CGAGCAATGT, the switch fluorescence ratio is 1.08.

For the sequence TGAGTGGGTG, the switch fluorescence ratio worked out at 1.02.

For the sequence AAGTAGTCC, the switch fluorescence ratio was 0.982.

Turning to TTAGCAACGG, the switch fluorescence ratio is 1.01.

With TGGTATTGTT, the switch fluorescence ratio was determined as 1.

In the case of AGACTTATGG, the switch fluorescence ratio worked out at 0.966.

With TTCATTGCGC, the switch fluorescence ratio is 1.04.

Take AGTTGAGTGG: the switch fluorescence ratio was 0.926.

Consider ATGAGAGATG, for which the switch fluorescence ratio was determined as 0.981.

GTTATGGGCC: the switch fluorescence ratio amounted to 0.992.

Turning to ATGGTATTGA, the switch fluorescence ratio was found to be 1.02.

With TAAACCGATA, the switch fluorescence ratio is 1.1.

For TAGACGCGCC, the switch fluorescence ratio was 0.982.

With GGTCACCCAC, the switch fluorescence ratio came to 1.4.

Regarding GTTTGCGTAC, the switch fluorescence ratio was found to be 1.11.

For the sequence TCAATTTGG, the switch fluorescence ratio came to 1.

For ATCAGTTTGT, the switch fluorescence ratio turned out to be 1.02.

With AACTTAAGTT, the switch fluorescence ratio turned out to be 0.958.

Take TAGCGTAGAT: the switch fluorescence ratio was 0.995.

As for TTGTTGACCT, the switch fluorescence ratio is 1.04.

As for GCCCCTTTTT, the switch fluorescence ratio was found to be 1.01.

CAGGTGTAAT: the switch fluorescence ratio was determined as 1.03.

GCTGTCCTCT: the switch fluorescence ratio is 0.973.

As for AGGCTTTTTA, the switch fluorescence ratio is 0.984.

Take GCAATCCGGG: the switch fluorescence ratio is 1.38.

As to TGTGATAGCT, the switch fluorescence ratio was 0.965.

CGTGCAGATT: the switch fluorescence ratio was found to be 1.

ATGTGTGAGT: the switch fluorescence ratio was found to be 0.966.

For GGTGCGCCC, the switch fluorescence ratio worked out at 0.986.

Regarding TCTGTAGGCC, the switch fluorescence ratio was found to be 0.969.

Regarding AGATGGAATG, the switch fluorescence ratio worked out at 0.988.

As to GCTATAGTTG, the switch fluorescence ratio is 1.05.

Regarding ACTCAATTA, the switch fluorescence ratio amounted to 1.04.

Consider CCAGACGGCA, for which the switch fluorescence ratio turned out to be 1.05.

Take AAGACGTTGT: the switch fluorescence ratio was determined as 1.

As for AGTCTTCGGA, the switch fluorescence ratio was found to be 1.02.

Take TGTAACCTCA: the switch fluorescence ratio was 1.05.

Consider TCCGCTCGG, for which the switch fluorescence ratio worked out at 1.16.

As for AGTCAGAGTT, the switch fluorescence ratio was 1.

Take ATGGGATTCC: the switch fluorescence ratio amounted to 1.01.

Take TCGGTTTCT: the switch fluorescence ratio was determined as 0.985.

In the case of AGCGGAACCA, the switch fluorescence ratio amounted to 0.97.

As for CCGAGTCCAA, the switch fluorescence ratio is 3.78.

As to TAAAGCTGAG, the switch fluorescence ratio was 1.07.

Regarding TGCTGTGTCG, the switch fluorescence ratio worked out at 1.04.

Regarding GTTCCTGTG, the switch fluorescence ratio was 0.995.

For TAAGGTTTTA, the switch fluorescence ratio was found to be 0.988.

AGCTCCTAGC: the switch fluorescence ratio worked out at 0.986.

Regarding TATTTGAGAG, the switch fluorescence ratio amounted to 1.

As to GCACTGTATT, the switch fluorescence ratio was 1.13.

As for ATAGCGGATC, the switch fluorescence ratio was determined as 1.03.

With AGTCGCATGG, the switch fluorescence ratio came out at 1.02.

Take ATCCGGTGCT: the switch fluorescence ratio was 1.1.

For the sequence GTTCTGCGCT, the switch fluorescence ratio came to 1.01.

GCTAGATGG: the switch fluorescence ratio was found to be 1.02.

On to GTTTAAGCGA, for which the switch fluorescence ratio was found to be 1.03.

For GAGTAATGAC, the switch fluorescence ratio is 1.09.

As for GGAGGAGGAT, the switch fluorescence ratio was found to be 0.964.

Regarding TTCTTTTCGG, the switch fluorescence ratio was 0.972.

As for GATCCAGTGG, the switch fluorescence ratio was 1.09.

As to ACCGGGTATA, the switch fluorescence ratio is 0.999.

For the sequence TACAGTCGCT, the switch fluorescence ratio stood at 1.07.

On to TCCACCATGG, for which the switch fluorescence ratio amounted to 1.2.

As for TACATGTCTA, the switch fluorescence ratio was determined as 1.03.

Regarding ATCTCTGGCG, the switch fluorescence ratio stood at 0.99.

Take CTAGCCCTG: the switch fluorescence ratio was found to be 1.

GAAAGGGGCA: the switch fluorescence ratio amounted to 0.974.

Turning to GTGGTCATTC, the switch fluorescence ratio was 1.01.

For the sequence TGACACATTA, the switch fluorescence ratio stood at 1.08.

Consider TTTTGTGTAG, for which the switch fluorescence ratio was 1.06.

Regarding GAACTAAGGC, the switch fluorescence ratio came to 1.12.

As for GCTTTTCAAC, the switch fluorescence ratio turned out to be 1.02.

Turning to CTGTACACC, the switch fluorescence ratio was found to be 1.06.

With AGCTATGCAT, the switch fluorescence ratio was 1.03.

TGGCCGGGGT: the switch fluorescence ratio is 0.959.

Regarding GCCGGAATCG, the switch fluorescence ratio was 0.999.

In the case of GTCTAGTTTC, the switch fluorescence ratio came out at 0.996.

For the sequence TTGGTGTAAC, the switch fluorescence ratio came to 1.05.

Turning to TACGTTTGAA, the switch fluorescence ratio is 1.02.

TCTATAGGCA: the switch fluorescence ratio turned out to be 0.984.

As for AGTTGTGGCC, the switch fluorescence ratio is 1.02.

For the sequence CCGGGACTAC, the switch fluorescence ratio was found to be 3.9.

CGTGACACTT: the switch fluorescence ratio worked out at 1.

AAGTATCCAG: the switch fluorescence ratio was found to be 0.962.

With TCTTAGGGGG, the switch fluorescence ratio is 1.02.

Turning to CGTGCAATGA, the switch fluorescence ratio was determined as 2.65.

Turning to CTATGAACTC, the switch fluorescence ratio was determined as 1.02.

Take GTGACTTCGT: the switch fluorescence ratio came out at 1.06.

Turning to CATGTGATCG, the switch fluorescence ratio is 0.989.

As for AGTATACTAA, the switch fluorescence ratio was found to be 1.

With GAGCTATTGG, the switch fluorescence ratio was found to be 0.925.

Take TTTACGAGG: the switch fluorescence ratio was determined as 1.

For the sequence GCCGACGTCT, the switch fluorescence ratio is 1.

Turning to ATTATCCAGT, the switch fluorescence ratio was 0.976.

For CTGGGATCG, the switch fluorescence ratio came to 1.

Consider TGTGGGGCCT, for which the switch fluorescence ratio was found to be 0.981.

Turning to GCAGGTCAGG, the switch fluorescence ratio came out at 1.07.

For the sequence GCGACTAGAT, the switch fluorescence ratio is 1.02.

Consider TGAGGTAAAA, for which the switch fluorescence ratio is 1.

Turning to AAACAGACTT, the switch fluorescence ratio amounted to 1.01.

For the sequence ATGGTTGGAG, the switch fluorescence ratio amounted to 0.967.

Consider TTATTTGAAA, for which the switch fluorescence ratio worked out at 1.01.

On to CAGAGGGCAT, for which the switch fluorescence ratio amounted to 1.05.

For GTTACGTCCT, the switch fluorescence ratio is 0.991.

Consider CGTGGTGGAA, for which the switch fluorescence ratio was determined as 1.04.

For GAAGTCGTAC, the switch fluorescence ratio was 1.18.

As for TTCGAGCCTG, the switch fluorescence ratio worked out at 1.03.

On to AGTCATCTTC, for which the switch fluorescence ratio was 0.992.

With GGAAAAAAAT, the switch fluorescence ratio stood at 0.923.

Turning to ACAGCACCAG, the switch fluorescence ratio amounted to 1.28.

Values taken from the supplement of paper PMC10126150.
